{"source": "PubChem BioAssay AID1347120", "about": "(National Center for Advancing Translational Sciences (NCATS), 2019)", "note": "In all, about 390,000 compounds went through this assay and about 930 (0.24%) were called active. The shares of active, inactive and inconclusive entries below differ from those in the screen. The call rests on the fitted dose curve; in most records, active means well fitted activation curve with a large enough effect; inconclusive means small, poorly fitted or top-dose-only effect; inactive means no such curve, though single readings can be large or run the other way. Potencies beside an inconclusive call are fits to weak or partial responses and may not hold up. Potency means the concentration at half of the fitted maximal effect; tags describe the fitted curve by direction and shape."}
{"test": "qHTS for Suppressors of FUS Proteinopathy: Primary screen using FUS-linked yeast assay; further: nearly all actives have a fitted effect of over 55% in size", "details": "S. cerevisiae FUS-expressing, OD600, 24 h; Potency: growth rescue; series mostly up to 76.6 µM", "summary_of_the_method": "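Yeast FUS proteinopathy model; galactose-induced FUS (2%), starting OD 0.005. Cpds in dilution series, 24hr, 30C, 99% humidity. Abs 600 nm growth. Pos ctrl CP55940 (top 92uM final); neg ctrl DMSO.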"}
{"molecule": "COC(=O)[C@@]1(Cc2ccc(F)cc2)[C@H]2c3cc(C(=O)N4CCCC4)n(CCF)c3C[C@H]2CN1C(=O)c1ccccc1", "Potency": "inconclusive: 14.1 µM [activator, partial curve, poor fit]"}
{"molecule": "C=CCn1c(SCC(=O)Nc2ccc(NC(=O)c3ccco3)c(OC)c2)nnc1-c1ccncc1", "Potency": "inconclusive: 7.94 µM [activator, partial curve, poor fit]"}
{"molecule": "CC(C)c1nc(N2CCN(C(=O)c3ccco3)CC2)c(C#N)c2c1COC(C)(C)C2", "Potency": "inactive"}
{"molecule": "CCCCC1Cc2[nH][nH]c(=O)c2C(c2ccc(F)cc2)O1", "note": "(stereo not given)", "Potency": "inconclusive: 50.1 µM [activator, single point]"}
{"molecule": "O=C(O)c1cccnc1SCc1cn2cc(Br)ccc2n1", "Potency": "inconclusive: 22.4 µM [activator, single point]"}
{"molecule": "CCc1ccc(NC(=O)CSc2nccn2-c2ccc(OC)cc2)cc1", "Potency": "inconclusive: 50.1 µM [activator, single point]"}
{"molecule": "CC(Sc1nnc(NC2CCCCC2)s1)C(=O)Nc1ccc2c(c1)C(=O)c1ccccc1C2=O", "note": "(stereo not given)", "Potency": "inconclusive: 0.794 µM [activator, full curve, poor fit]"}
{"molecule": "CC(=O)c1cccc(CN2CCC(C(=O)Nc3ccc(Oc4cccnc4)cc3)CC2)c1", "Potency": "inconclusive: 7.08 µM [activator, partial curve]"}
{"molecule": "C/C(=N\\NC(=O)c1cc2ccccc2cc1O)c1ccc(C)o1", "Potency": "inconclusive: 3.98 µM [activator, full curve]"}
{"molecule": "CSCCCNc1nc(C)nc2c1nnn2Cc1ccccc1", "Potency": "inactive"}
{"molecule": "COc1cccc(-c2csc(N3CCN(C(=O)Nc4ccccc4OC)CC3)n2)c1", "Potency": "inactive"}
{"molecule": "O=C(Nc1cccc(C(=O)OCc2cc(=O)n3nc(C4CC4)sc3n2)c1)c1cccc(F)c1", "Potency": "inactive"}
{"molecule": "COc1ccc(S(=O)(=O)NCC2CCC(C(=O)N3CCC4(CC3)OCCO4)CC2)cc1", "note": "(stereo not given)", "Potency": "inactive"}
{"molecule": "CC(C)OC(=O)CSc1nnc(Cc2ccccc2)n1C", "Potency": "inconclusive: 28.2 µM [activator, single point]"}
{"molecule": "Cc1ccc2nc(N(CCCN(C)C)C(=O)c3ccc(S(=O)(=O)N4CCc5ccccc5C4)cc3)sc2c1", "Potency": "inconclusive: 39.8 µM [activator, single point]"}
{"molecule": "CCCc1cc(Nc2c(C)n(C)n(-c3ccccc3)c2=O)n2c(nc3ccccc32)c1C#N", "Potency": "inconclusive: 31.6 µM [activator, partial curve, poor fit]"}
{"molecule": "O=C(NC1CCCCC1)C(c1cccs1)N(Cc1cccs1)C(=O)c1cccs1", "note": "(stereo not given)", "Potency": "inconclusive: 31.6 µM [activator, partial curve, poor fit]"}
{"molecule": "O=c1[nH]c(C2CCN(S(=O)(=O)c3ccc4c(c3)OCCO4)CC2)nc2c1nnn2Cc1c(F)cccc1Cl", "Potency": "inconclusive: 20 µM [activator, partial curve, poor fit]"}
{"molecule": "CC(C)(C)N1C(=O)c2ccccc2NC(=O)N1Cc1ccccc1", "Potency": "inactive"}
{"molecule": "CC(=O)c1ccc(S(=O)(=O)Nc2ccc(-n3c(C)nc4ccccc4c3=O)cc2)cc1", "Potency": "inconclusive: 39.8 µM [activator, single point]"}
{"molecule": "CCc1nnc(SCC(=O)Nc2ccccc2Cl)nc1CC", "Potency": "inconclusive: 31.6 µM [activator, single point]"}
{"molecule": "CCCCC(NC(=O)c1ccccc1)C(=O)OCC(=O)N1c2ccccc2Sc2ccccc21", "note": "(stereo not given)", "Potency": "inconclusive: 28.2 µM [activator, partial curve, poor fit]"}
{"molecule": "C1=C(c2ccc(-c3ccccc3)cc2)Nc2ncnn2C1c1ccco1", "note": "(stereo not given)", "Potency": "inconclusive: 10 µM [activator, partial curve, poor fit]"}
{"molecule": "Cc1nc2scc(C)n2c(=O)c1S(=O)(=O)N1CCN(c2ccccc2)CC1", "Potency": "inactive"}
{"molecule": "COc1ccc(N(C(=O)c2ccc(OC)c(OC)c2)S(=O)(=O)c2ccc(Cl)cc2)cc1", "Potency": "inactive"}
{"molecule": "Cc1ccc(NC(=O)N2CCCC(c3ccccc3)C2)cc1", "note": "(stereo not given)", "Potency": "inactive"}
{"molecule": "O=C(Cn1[nH]c(=O)c2ccccc2c1=O)OCC(=O)c1ccccc1", "Potency": "inconclusive: 6.31 µM [activator, single point]"}
{"molecule": "COc1ccc(-c2coc3c(C(=O)NCc4ccc(OC)c(OC)c4)cccc23)c(C)c1", "Potency": "inconclusive: 28.2 µM [activator, single point]"}
{"molecule": "COc1ccc(/C=C/c2ccc3cccc(O)c3n2)cc1Br", "Potency": "inactive"}
{"molecule": "Cc1cc(C)c2cc(CN(Cc3cccs3)Cc3nnnn3CC3CCCO3)c(=O)[nH]c2c1", "note": "(stereo not given)", "Potency": "inconclusive: 28.2 µM [activator, single point]"}
{"molecule": "CCOc1ccc(CCN2C(=S)N([C@@H](Cc3ccc(O)cc3)CN3CCC[C@@H]3CN3C(=S)NC[C@@H]3Cc3ccccc3)C[C@@H]2Cc2ccc(O)cc2)cc1", "Potency": "inconclusive: 31.6 µM [activator, partial curve, poor fit]"}
{"molecule": "CCN1CCOC(=O)C1CC(=O)Nc1cc(C)ccc1OC", "note": "(stereo not given)", "Potency": "inactive"}
{"molecule": "Cc1cc(NC(=O)CCC(=O)N(CCC(C)C)C(C(=O)NCC2CCCO2)c2ccccc2C)no1", "note": "(stereo not given)", "Potency": "inconclusive: 31.6 µM [activator, single point]"}
{"molecule": "COC(=O)[C@]12C[C@H](CC(=O)NCCc3ccccc3OC)C(=O)N(Cc3cccc4ccccc34)C1=C[C@H](COCc1ccccc1)O[C@@H]2C", "Potency": "active: 15.8 µM"}
{"molecule": "CCOC(=O)c1sc(NC(=O)c2ccc(OC)cc2)nc1C", "Potency": "inactive"}
{"molecule": "CCOc1ccc(C(=S)NC2CCCCC2)cc1OCC", "Potency": "inactive"}
{"molecule": "Cc1ccc(NC(=O)CSc2nnc(CNC(=O)C34CC5CC(CC(C5)C3)C4)n2-c2ccc(F)cc2)cc1", "Potency": "inconclusive: 7.94 µM [activator, partial curve]"}
{"molecule": "O=C(NCc1ccc2c(c1)OCO2)c1ccc(COc2cc(Cl)ccc2Cl)o1", "Potency": "inactive"}
{"molecule": "O=C(Nc1ccc(Cl)cc1)C1Cc2c(-c3ccccc3Oc3ccccc3)ccnc2O1", "note": "(stereo not given)", "Potency": "inconclusive: 50.1 µM [activator, single point]"}
{"molecule": "CC1CCc2nc3ccc(S(=O)(=O)N4CCC(C(=O)NC(C)c5ccccc5)CC4)cc3c(C(=O)O)c2C1", "note": "(stereo not given)", "Potency": "inconclusive: 11.2 µM [activator, partial curve]"}
{"molecule": "O=C(Nc1ccc(OCc2ccccc2)cc1)c1ccccc1", "Potency": "inactive"}
{"molecule": "COc1ccc(Cl)cc1N(C)C(=O)c1ccc2c(=O)n3c(nc2c1)CCCCC3", "Potency": "inactive"}
{"molecule": "Cc1cccc(N2CCN(CCCNc3ncnc4onc(-c5ccc(Cl)cc5)c34)CC2C)c1", "note": "(stereo not given)", "Potency": "inactive"}
{"molecule": "C=CCn1c(C)cc(C(=O)COc2ncnc3sccc23)c1C", "Potency": "inconclusive: 39.8 µM [activator, single point]"}
{"molecule": "CN1CCN(S(=O)(=O)c2ccc(N3CCN(c4ccc(O)cc4)CC3)c([N+](=O)[O-])c2)CC1", "Potency": "inconclusive: 14.1 µM [activator, partial curve, poor fit]"}
{"molecule": "COc1ccccc1N1CCN(C(=O)CN(c2ccccc2OC)S(=O)(=O)c2ccccc2)CC1", "Potency": "inconclusive: 50.1 µM [activator, single point]"}
{"molecule": "CCOc1c2ccoc2nc2c(OC)c(OC)ccc12", "Potency": "inactive"}
{"molecule": "O=C(c1cc(COc2cccc(C(F)(F)F)c2)on1)N1CCC(Oc2cccnc2)CC1", "Potency": "inconclusive: 22.4 µM [activator, partial curve, poor fit]"}
{"molecule": "COc1ccc([C@H]2CC(=O)C=C(c3ccc(SC)cc3)C2)cc1", "Potency": "inactive"}
{"molecule": "O=C(Nc1ccc2nc(SCC(=O)N3CCOCC3)sc2c1)c1cccc(Cl)c1", "Potency": "inconclusive: 25.1 µM [activator, single point]"}
{"molecule": "CN(Cc1ccc(Cl)c(Cl)c1)C(C(=O)NCc1ccccc1)c1ccco1", "note": "(stereo not given)", "Potency": "inconclusive: 12.6 µM [activator, partial curve]"}
{"molecule": "CCOc1ccccc1CNC(=O)C1CCN(C(=O)N2CC(CC)Oc3ccc(C)cc32)CC1", "note": "(stereo not given)", "Potency": "inconclusive: 28.2 µM [activator, single point]"}
{"molecule": "CCN(CC)S(=O)(=O)c1ccc(NC(=O)COC(=O)c2ccc(Br)o2)cc1", "Potency": "inconclusive: 31.6 µM [activator, single point]"}
{"molecule": "CCOC(=O)c1cnc2c(C)c(C)ccc2c1Nc1ccc(S(=O)(=O)Nc2ncccn2)cc1", "Potency": "inactive"}
{"molecule": "COC(=O)c1cc(-c2ccc(Cl)s2)c(=O)n2c1CCC2", "Potency": "inactive"}
{"molecule": "CCNc1ccc(Br)cc(C(=O)/C=C/c2ccccc2Cl)c1=O", "Potency": "inconclusive: 25.1 µM [activator, partial curve, poor fit]"}
{"molecule": "COC(=O)C1=CN(c2cccc(OCc3ccccc3)c2)C(N)=C(C#N)C1c1ccc(-c2ccccc2)cc1", "note": "(stereo not given)", "Potency": "inconclusive: 31.6 µM [activator, single point]"}
{"molecule": "Cc1csc(NC(=O)c2sccc2C)n1", "Potency": "inactive"}
{"molecule": "C/C(CC(=O)Nc1cccc(Cl)c1Cl)=N\\NC(=O)c1ccccc1Br", "Potency": "inconclusive: 7.08 µM [activator, full curve, poor fit]"}
{"molecule": "COc1ccc(-c2cc3onc(-c4c(Cl)cccc4Cl)c3c(=O)n2C)cc1", "Potency": "inconclusive: 25.1 µM [activator, partial curve]"}
{"molecule": "COc1ccc(/C=N/N=C2/NC(=O)C(CC(=O)O)S2)cc1OCc1ccccc1Cl", "note": "(stereo not given)", "Potency": "inconclusive: 7.08 µM [activator, partial curve]"}
{"molecule": "CCCCNC(=O)C1(C(=O)c2ccc(OC)cc2)CC(C(=O)OCC)=NO1", "note": "(stereo not given)", "Potency": "inactive"}
{"molecule": "COc1ccc(N(CC(=O)NCCSCc2ccco2)S(=O)(=O)c2ccc(C)cc2)cc1", "Potency": "inconclusive: 14.1 µM [activator, partial curve]"}
{"molecule": "COc1ccc(N(CCC(=O)Nc2ccccc2F)S(=O)(=O)c2ccc(C)cc2C)cc1", "Potency": "inconclusive: 10 µM [activator, partial curve]"}
{"molecule": "CC(=O)n1cc([C@H]2C=C(C(=O)NCc3ccccc3)O[C@@H](OCCCCO)C2)c2ccccc21", "Potency": "inconclusive: 31.6 µM [activator, single point]"}
